Experimental data taken from PubChem BioAssay AID504333 (National Center for Advancing Translational Sciences (NCATS), 2011).
The whole screen tested about 360,000 compounds, of which about 16,000 (4.4%) were called active. The inconclusive results got no clear call from the source; some entries with a clear call stand among them for comparison. Calls follow the shape of the dose curve; as a rule, active = well fitted inhibition curve with a large enough effect; inconclusive = small, poorly fitted or top-dose-only effect; inactive = no such curve, though single readings can be large or run the other way. Potencies beside an inconclusive call are fits to weak or partial responses and may not hold up.

target: Bromodomain adjacent to zinc finger domain protein 2B (Homo sapiens) (UniProt Q9UIF8); assay: qHTS Assay for Inhibitors of BAZ2B; settings: AlphaScreen BAZ2B-H3K14Ac peptide displacement; series mostly up to 114 µM; also: nearly all actives have a fitted effect of over 60% in size
In short: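 BAZ2B (50 nM) with biotin-H3(5-23)K14Ac peptide (50 nM) in PBS pH 7.4, 0.01% Tween-20, preformed 30 min, then compound 30 min at room temperature; top concentration 110uM. AlphaScreen streptavidin donor/nickel chelate acceptor beads (10 ug/mL final), 20 min dark, signal read.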
Potency is read from the fitted curve at half-maximal effect; tags tell the direction and shape of the fitted curve.

Sequence of UniProt Q9UIF8 (Q9UIF8 whole entry, looked up, the tested form may be a part): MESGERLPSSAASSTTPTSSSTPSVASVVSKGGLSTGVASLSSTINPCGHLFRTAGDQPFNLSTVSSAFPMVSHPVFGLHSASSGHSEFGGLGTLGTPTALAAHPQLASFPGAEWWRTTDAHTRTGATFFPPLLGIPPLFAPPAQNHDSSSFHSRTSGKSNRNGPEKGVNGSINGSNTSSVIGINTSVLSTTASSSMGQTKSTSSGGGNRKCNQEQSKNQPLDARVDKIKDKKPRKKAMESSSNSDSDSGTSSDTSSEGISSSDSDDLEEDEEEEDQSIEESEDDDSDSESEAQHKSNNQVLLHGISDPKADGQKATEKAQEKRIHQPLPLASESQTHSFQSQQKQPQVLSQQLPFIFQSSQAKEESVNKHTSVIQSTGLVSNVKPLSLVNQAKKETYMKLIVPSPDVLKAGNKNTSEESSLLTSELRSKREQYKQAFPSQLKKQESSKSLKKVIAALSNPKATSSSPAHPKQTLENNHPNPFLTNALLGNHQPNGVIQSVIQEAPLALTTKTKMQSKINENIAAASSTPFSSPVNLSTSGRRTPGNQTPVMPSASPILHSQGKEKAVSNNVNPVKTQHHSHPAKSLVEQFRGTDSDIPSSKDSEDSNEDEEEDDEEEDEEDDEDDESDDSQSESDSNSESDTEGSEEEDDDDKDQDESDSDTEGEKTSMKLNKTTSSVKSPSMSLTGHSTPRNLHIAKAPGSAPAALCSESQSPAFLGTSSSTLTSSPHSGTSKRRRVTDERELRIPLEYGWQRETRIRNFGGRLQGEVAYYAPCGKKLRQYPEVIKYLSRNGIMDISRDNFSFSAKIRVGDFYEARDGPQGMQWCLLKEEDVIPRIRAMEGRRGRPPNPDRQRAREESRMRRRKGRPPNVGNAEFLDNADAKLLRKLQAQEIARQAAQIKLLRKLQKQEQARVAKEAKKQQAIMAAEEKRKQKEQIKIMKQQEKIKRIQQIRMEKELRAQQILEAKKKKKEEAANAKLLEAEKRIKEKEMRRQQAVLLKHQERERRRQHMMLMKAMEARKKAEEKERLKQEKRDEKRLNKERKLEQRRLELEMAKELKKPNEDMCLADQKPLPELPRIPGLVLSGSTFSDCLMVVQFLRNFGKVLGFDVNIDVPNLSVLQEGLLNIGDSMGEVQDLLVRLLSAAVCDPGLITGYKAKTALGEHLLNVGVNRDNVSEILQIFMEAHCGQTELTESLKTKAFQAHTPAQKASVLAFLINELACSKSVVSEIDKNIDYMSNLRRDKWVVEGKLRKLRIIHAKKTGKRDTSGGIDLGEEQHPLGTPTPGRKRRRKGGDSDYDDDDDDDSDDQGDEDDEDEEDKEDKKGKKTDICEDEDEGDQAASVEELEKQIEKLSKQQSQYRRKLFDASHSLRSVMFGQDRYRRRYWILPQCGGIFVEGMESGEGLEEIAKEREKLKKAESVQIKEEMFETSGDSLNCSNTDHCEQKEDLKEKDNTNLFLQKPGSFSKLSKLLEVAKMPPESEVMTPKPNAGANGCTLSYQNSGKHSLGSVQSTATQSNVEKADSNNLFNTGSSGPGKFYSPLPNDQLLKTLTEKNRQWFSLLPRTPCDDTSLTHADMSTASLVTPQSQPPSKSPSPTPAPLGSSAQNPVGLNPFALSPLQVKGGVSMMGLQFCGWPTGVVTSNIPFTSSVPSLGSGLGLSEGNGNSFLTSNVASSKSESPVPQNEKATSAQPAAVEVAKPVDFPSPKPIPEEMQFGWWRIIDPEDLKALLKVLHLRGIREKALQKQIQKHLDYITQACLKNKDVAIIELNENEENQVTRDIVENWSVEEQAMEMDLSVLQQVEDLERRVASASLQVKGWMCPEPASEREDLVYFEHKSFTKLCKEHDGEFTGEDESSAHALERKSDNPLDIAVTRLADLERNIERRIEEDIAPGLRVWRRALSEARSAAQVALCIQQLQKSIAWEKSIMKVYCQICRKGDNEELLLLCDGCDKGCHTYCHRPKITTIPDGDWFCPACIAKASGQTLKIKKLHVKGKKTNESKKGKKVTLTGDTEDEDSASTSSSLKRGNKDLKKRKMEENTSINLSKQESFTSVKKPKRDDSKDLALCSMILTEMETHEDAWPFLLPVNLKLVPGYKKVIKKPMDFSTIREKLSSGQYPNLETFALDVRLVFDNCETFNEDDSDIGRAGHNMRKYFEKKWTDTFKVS

Row | SMILES | Potency
1 | COc1ccc(Cl)cc1NC(=S)N(CCCN1CCOCC1)Cc1cn(C)c2ccccc12 | inconclusive: 44.7 µM [inhibitor, partial curve]
2 | Cc1cccc(NC(=O)[C@@H](CC(C)C)NC(=O)[C@@H]2Cc3ccccc3CN2)c1 | inconclusive: 89.1 µM [inhibitor, single point]
3 | CC(C)(C)c1ccc(C(=O)NC(=S)N2CCCCCC2)cc1 | inconclusive: 17.8 µM [inhibitor, full curve]
4 | S=c1[nH]nc(-c2cccnc2)n1/N=C/c1ccccc1 | inconclusive: 56.2 µM [inhibitor, partial curve]
5 | S=c1[nH]nc(C2CCCCC2)n1/N=C/C=C/c1ccccc1 | inconclusive: 44.7 µM [inhibitor, partial curve]
6 | CCc1ccc(/C=C2/Sc3ccccc3N(CC(=O)NCCCN3CCOCC3)C2=O)cc1 | active: 35.5 µM
7 | Cc1cccc(-n2c(=O)c3c(c4cc(C)ccc4n3C)n(Cc3ccccc3F)c2=O)c1 | inactive
8 | O=C(CCN1CCc2ccccc2C(c2ccccc2)C1)c1ccc2c(c1)OCCO2 (stereo not given) | inconclusive: 70.8 µM [inhibitor, partial curve, poor fit]
9 | COc1ccc2ccccc2c1C1CC(=O)N2CN(C)CSC2=C1C#N (stereo not given) | inconclusive: 89.1 µM [inhibitor, single point]
10 | CC1CCCC(N2CCN(C(=O)c3ccc([N+](=O)[O-])cc3)CC2)C1 (stereo not given) | active: 56.2 µM
11 | COc1ccc(-n2c(C)cc(-c3csc(N)n3)c2C)cc1 | active: 44.7 µM
12 | CCC1CCC2(CC1)NNC(=S)NN2 | inconclusive: 25.1 µM [inhibitor, single point]
13 | Cc1cccc(C2NC(=O)c3c(sc(C)c3C)N2)c1O (stereo not given) | inactive
14 | Cc1nccn1CCN(C)Cc1cn(Cc2ccccc2)nc1-c1ccc2c(c1)OCO2 | inconclusive: 70.8 µM [inhibitor, single point]
15 | Cc1ccc(/C(N)=N/OC(=O)CSc2ccccc2)cc1 | inactive
16 | Cc1cc(C)nc(SCc2ccc(C(=O)N/N=C/c3ccco3)cc2)n1 | inconclusive: 50.1 µM [inhibitor, partial curve]
17 | COc1ccccc1CN(C)C(=O)C(NC(=O)Cc1cccc2ccccc12)C(C)C (stereo not given) | inactive
18 | CCCCN(C(=O)c1cc(Cl)nc2ccccc12)c1c(N)n(CCCC)c(=O)[nH]c1=O | inactive
19 | Clc1ccc(CSc2nnc([C@@H]3CCCN3)o2)cc1Cl | inconclusive: 50.1 µM [inhibitor, partial curve]
20 | CCOc1ccc(NC(C)c2cc(Cl)ccc2O)cc1 (stereo not given) | active: 35.5 µM
21 | N#CCCN1CCCc2cc(N=Nc3ccc(C(F)(F)F)cc3)ccc21 | active: 5.62 µM
22 | O=C(CSc1nnc(CNC(=O)c2c(F)cccc2F)o1)NCc1ccco1 | active: 70.8 µM
23 | CC1Cc2c([nH]c3ccccc23)C(=O)N1 (stereo not given) | inactive
24 | c1ccc(SCc2cn3cccnc3n2)nc1 | inactive
25 | CC1=Nc2cc(C(=O)N3CCCC3)ccc2Sc2ccc(C)cc21 | inconclusive: 89.1 µM [inhibitor, single point]

Row | SMILES | Potency
26 | CCOc1ccc(-c2cc(N)n(S(=O)(=O)c3ccc(OC)c(OC)c3)n2)cc1 | inactive
27 | O=C1c2[nH]nc(-c3ccccc3O)c2C(c2cccc(Cl)c2)N1Cc1ccco1 (stereo not given) | inconclusive: 50.1 µM [inhibitor, partial curve]
28 | CCN(CC)c1ccc(NC(=O)c2cncc(Br)c2)cc1 | active: 35.5 µM
29 | CC(C)c1ccc(NC(=O)c2cccn2-c2nnc(N3CCCCC3)s2)cc1 | inconclusive: 39.8 µM [inhibitor, full curve, poor fit]
30 | CCSc1nnc(NC(=O)C2CCCCC2C(=O)OCC(F)(F)C(F)F)s1 (stereo not given) | inactive
31 | Cc1ccccc1NC(=O)c1cccc(NC(=O)CCC(=O)O)c1 | inactive
32 | COc1ccnc(Oc2ccccc2)c1C(=O)N/C=N/OCc1ccccc1F | inactive
33 | Cc1ccc(NC(=O)CN(C)C(=O)CCC(=O)N2CCOCC2)cc1 | inactive
34 | CCOC(=O)c1c(NC(=S)Nc2ccccc2)sc2c1CC(C)(C)SC2 | inconclusive: 79.4 µM [inhibitor, single point]
35 | O=C1c2ccccc2C(Nc2cccnc2)N1Cc1ccccc1 (stereo not given) | inconclusive: 89.1 µM [inhibitor, single point]
36 | O=[N+]([O-])c1ccc(-c2n(-c3ccccn3)c3ccccc3[n+]2-c2ccccn2)cc1 | inconclusive: 50.1 µM [inhibitor, partial curve]
37 | Cc1ccc(Nc2nc(N)c([N+](=O)[O-])c(N3CCC(C)CC3)n2)cc1C | active: 25.1 µM
38 | CN1CCN(c2ccccc2NC(=O)c2ccc(-c3ccc(Br)cc3)o2)CC1 | inconclusive: 3.16 µM [inhibitor, full curve, poor fit]
39 | COc1ccc(N(CC(=O)NCC2CCCO2)C(=O)CCC(=O)Nc2cc(C)on2)cc1OC (stereo not given) | inactive
40 | COc1cccc(CNc2ccccn2)c1O | inactive
41 | CC(NCc1ccco1)C(=O)N1CCc2ccccc2C1 (stereo not given) | active: 56.2 µM
42 | COc1ccc(C2C=C(C34CC5CC(CC(C5)C3)C4)NC(=S)N2)cc1OC (stereo not given) | inconclusive: 39.8 µM [inhibitor, full curve]
43 | Cc1ccc(Sc2nnc(Cc3ccccc3)c3ccccc23)cc1 | inactive
44 | COc1cccc(/C=N/N2C(=O)CSC2=S)c1O | active: 3.16 µM
45 | CC(Sc1nnnn1C)C(=O)Nc1ccc(Oc2ccccc2)cc1 (stereo not given) | inactive
46 | O=C1Nc2ccc(F)cc2C12Nc1ccccc1-c1nnc(SCc3ccccc3F)nc1O2 (stereo not given) | inconclusive: 50.1 µM [inhibitor, partial curve]
47 | CCNc1nc(NCC)n2c(SCC(=O)Nc3ccc(C)c(C)c3)nnc2n1 | active: 50.1 µM
48 | CCOC(=O)C(C)Sc1nc(-c2ccccn2)ncc1OC (stereo not given) | active: 3.16 µM
49 | O=C(CN(C(=O)c1ccc(Cl)cc1)N1C(=O)C2C3C=CC(C3)C2C1=O)c1cccs1 (stereo not given) | inconclusive: 4.47 µM [inhibitor, full curve, poor fit]
50 | CCOc1cc(/C=C/C(=O)OCC(=O)NCc2ccco2)cc(Cl)c1OC | inconclusive: 89.1 µM [inhibitor, single point]
